Results from a collection of fitness landscapes (doi:10.1038/s41467-024-54723-y).
In all, about 18,000 sequences were measured (“TetR repression strength (sort-seq, GFP reporter)”: median about 0.23, highest 2% from about 0.68 on). The list shows a part of the results.

Biological target: TetR (class B, Tn10) (UniProt P04483)
Assay: TetR repression strength (sort-seq, GFP reporter) (relative to tetO2 = 1); higher = stronger repression
Conditions: E. coli
Method in brief: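 Three independent transformations of E. coli SIG10-MAX were made with a low-copy plasmid library randomizing eight operator positions between a constitutive promoter and sfGFP, with constitutive TetR. Following 5 h at 37 °C in LB plus 50 µg/mL chloramphenicol, 10^6 cells went through FACS into 13 fluorescence bins, and each bin was sequenced by Illumina. Repression strength was defined as the top bin index plus one minus the read-weighted mean bin, divided by the unaltered operator's value. Averages included only members reaching ≥30 reads in all replicates with a CV ≤0.5.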

Sequence of UniProt P04483 (P04483 whole entry): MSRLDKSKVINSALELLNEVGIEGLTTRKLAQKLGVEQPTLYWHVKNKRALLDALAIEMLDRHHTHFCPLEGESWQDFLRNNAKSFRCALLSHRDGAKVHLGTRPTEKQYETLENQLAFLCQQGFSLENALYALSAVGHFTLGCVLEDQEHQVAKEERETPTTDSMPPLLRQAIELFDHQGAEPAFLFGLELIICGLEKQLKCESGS

Sequence	TetR repression strength
TCCCATTTAGTACTTGAGA	0.0724
TCCCAGGTAGTGAATGAGA	0.206
TCCCAGTTAGTTTCAGAGA	0.262
TCCCCGAGAGTCGGTGAGA	0.284
TCCCGAGAAGTATGTGAGA	0.134
TCCCTGTCAGTACGCGAGA	0.311
TCCCGGTAAGTAACGGAGA	0.201
TCCCCTTAAGTTCGCGAGA	0.567
TCCCCTAGAGTGTCGGAGA	0.384
TCCCTATAAGTTGTGGAGA	0.201
TCCCCCCGAGTGCTGGAGA	0.344
TCCCGTGGAGTCTGCGAGA	0.0296
TCCCCGCAAGTGTCCGAGA	0.334
TCCCTATCAGTTACAGAGA	0.707
TCCCCAAAAGTGGTGGAGA	0.247
TCCCGCGGAGTATTTGAGA	0.333
TCCCTTCAAGTTAAAGAGA	0.252
TCCCGTACAGTTTTGGAGA	0.42
TCCCTAGGAGTCCTAGAGA	0.342
TCCCGTCAAGTCGTAGAGA	0.26
TCCCGATCAGTCGTAGAGA	0.354
TCCCTCCAAGTGTATGAGA	0.35
TCCCTGTAAGTGGTAGAGA	0.466
TCCCTGGAAGTGCTGGAGA	0.394
TCCCTTATAGTCCCCGAGA	0.378
TCCCAAAGAGTTGGGGAGA	0.139

Sequence	TetR repression strength
TCCCGGACAGTCGGAGAGA	0.165
TCCCTCCAAGTGCCGGAGA	0.075
TCCCGAAAAGTGGGAGAGA	0.0419
TCCCGTCTAGTGGATGAGA	0.141
TCCCCACTAGTGTGTGAGA	0.104
TCCCTATCAGTGGTCGAGA	0.532
TCCCGGATAGTTTAAGAGA	0.389
TCCCAAGCAGTACTTGAGA	0.226
TCCCAGGAAGTGCAGGAGA	0.288
TCCCAATAAGTAGTAGAGA	0.35
TCCCTTTTAGTTCTTGAGA	0.394
TCCCTTGGAGTGGCTGAGA	0.434
TCCCGCCTAGTTGCTGAGA	0.316
TCCCAGCTAGTGCCGGAGA	0.458
TCCCCGATAGTGCTAGAGA	0.311
TCCCAGGTAGTTTTCGAGA	0.358
TCCCGTCAAGTCCTCGAGA	0.312
TCCCGCGAAGTGTTCGAGA	0.0749
TCCCACGGAGTCGCCGAGA	0.333
TCCCGTTTAGTGGTTGAGA	0.0905
TCCCTGAGAGTGGGCGAGA	0.261
TCCCGGGCAGTCATTGAGA	0.24
TCCCTTAGAGTGTACGAGA	0.314
TCCCGCGTAGTGGTGGAGA	0.256
TCCCACTGAGTGATAGAGA	0.551
TCCCACGGAGTAGTGGAGA	0.173

Sequence	TetR repression strength
TCCCGCAAAGTGGAAGAGA	0.281
TCCCAATCAGTGGTAGAGA	0.521
TCCCTGAGAGTCTTCGAGA	0.191
TCCCAGACAGTTAGGGAGA	0.2
TCCCGAATAGTAAGCGAGA	0.525
TCCCAGTTAGTCAGGGAGA	0.497
TCCCTGTAAGTATTGGAGA	0.125
TCCCTGGGAGTGACAGAGA	0.299
TCCCGGTCAGTCGAGGAGA	0.109
TCCCCCGCAGTATACGAGA	0.376
TCCCATACAGTCAGGGAGA	0.207
TCCCGCGGAGTAGGCGAGA	0.108
TCCCTATAAGTTGGTGAGA	0.207
TCCCGTATAGTCAAGGAGA	0.436
TCCCGCACAGTGGGCGAGA	0.3
TCCCCGTTAGTGGCTGAGA	0.238
TCCCTCTTAGTATGTGAGA	0.207
TCCCGGTGAGTTCAGGAGA	0.0518
TCCCTTGAAGTTCGTGAGA	0.195
TCCCCTCAAGTGATCGAGA	0.387
TCCCAGCGAGTGTTAGAGA	0.305
TCCCGCCAAGTCCGGGAGA	0.21
TCCCGGTCAGTGTTTGAGA	0.61
TCCCGACGAGTACTGGAGA	0.259
TCCCTGTTAGTGGATGAGA	0.117
TCCCTATCAGTGGCAGAGA	0.771

Sequence	TetR repression strength
TCCCTGGGAGTGGCTGAGA	0.289
TCCCAGTGAGTGGGTGAGA	0.468
TCCCAGTCAGTCCCAGAGA	0.365
TCCCACGGAGTGAATGAGA	0.33
TCCCAGCTAGTGAGGGAGA	0.178
TCCCAGTCAGTCACCGAGA	0.333
TCCCTAGGAGTCCCTGAGA	0.267
TCCCGAAGAGTAACAGAGA	0.0646
TCCCTGTCAGTTGATGAGA	0.536
TCCCAATTAGTGAAGGAGA	0.196
TCCCGGGAAGTGCAGGAGA	0.333
TCCCCGGCAGTTGGAGAGA	0.0158
TCCCGTATAGTTGACGAGA	0.0609
TCCCTGATAGTTTGCGAGA	0.215
TCCCAATGAGTACTCGAGA	0.379
TCCCGAGGAGTAGAGGAGA	0.411
TCCCAGGTAGTGTTTGAGA	0.24
TCCCGACCAGTGGCCGAGA	0.167
TCCCGTGGAGTAGAAGAGA	0.308
TCCCGGTGAGTCCGGGAGA	0.18
TCCCCGTTAGTGTGGGAGA	0.259
TCCCCTTAAGTCGAGGAGA	0.157
TCCCCTAGAGTTCACGAGA	0.159
TCCCCTTGAGTATCAGAGA	0.207
TCCCTTAAAGTCCAAGAGA	0.306
TCCCAGCGAGTGGGCGAGA	0.124

Sequence	TetR repression strength
TCCCATATAGTTCTGGAGA	0.197
TCCCAAACAGTATCAGAGA	0.622
TCCCGGGTAGTGGGTGAGA	0.2
TCCCGTGGAGTCTACGAGA	0.102
TCCCCGACAGTGAAGGAGA	0.0546
TCCCTATTAGTTGGTGAGA	0.637
TCCCTACAAGTTTACGAGA	0.276
TCCCCGCGAGTGGTCGAGA	0.467
TCCCACGGAGTAGCCGAGA	0.172
TCCCGGGCAGTTTAGGAGA	0.0549
TCCCTATTAGTACGTGAGA	0.177
TCCCAGTTAGTCCTTGAGA	0.292
TCCCGTGGAGTGCAAGAGA	0.377
TCCCGTGGAGTGGCAGAGA	0.246
TCCCAGATAGTTGCCGAGA	0.166
TCCCCAAGAGTCAGGGAGA	0.194
TCCCGTATAGTAATTGAGA	0.0979
TCCCTGGGAGTGTCAGAGA	0.167
TCCCAAGTAGTATTCGAGA	0.242
TCCCTTCTAGTCATAGAGA	0.371
TCCCCGGTAGTCAGTGAGA	0.49
TCCCTTGGAGTTCGTGAGA	0.565
TCCCCATGAGTAATTGAGA	0.334
TCCCACACAGTTAGGGAGA	0.284
TCCCGCTAAGTGATAGAGA	0.69
TCCCGCGGAGTACGGGAGA	0.104

Sequence	TetR repression strength
TCCCAACAAGTGGGTGAGA	0.389
TCCCCATTAGTGGTTGAGA	0.0555
TCCCCTTAAGTGTAGGAGA	0.206
TCCCTAGTAGTGGACGAGA	0.415
TCCCGTTGAGTATGTGAGA	0.181
TCCCGGTCAGTCCAGGAGA	0.238
TCCCCCTGAGTTGTGGAGA	0.355
TCCCGGGAAGTTGTGGAGA	1.1
TCCCACTTAGTCAGCGAGA	0.273
TCCCCGCTAGTCATTGAGA	0.236
TCCCGTTGAGTGGAGGAGA	0.201
TCCCGTGGAGTCACGGAGA	0.0633
TCCCACGGAGTGTTAGAGA	0.317
TCCCGCTCAGTGTCAGAGA	0.244
TCCCGAGTAGTCTAGGAGA	0.142
TCCCAACCAGTTAGTGAGA	0.298
TCCCAGTTAGTTACGGAGA	0.149
TCCCAGGGAGTCGTGGAGA	0.11
TCCCCTTTAGTGCGGGAGA	0.206
TCCCGAGTAGTACTCGAGA	0.0848
TCCCAGTGAGTCAGGGAGA	0.456
TCCCGGACAGTCATGGAGA	0.192
TCCCACTAAGTCGGGGAGA	0.156
TCCCTTTGAGTTGCTGAGA	0.319
TCCCCTTTAGTTAATGAGA	0.471
TCCCGCTAAGTTTGGGAGA	0.0197

Sequence	TetR repression strength
TCCCTAGCAGTGATCGAGA	0.659
TCCCACTGAGTTCTTGAGA	0.195
TCCCTCTGAGTTCATGAGA	0.243
TCCCTGTGAGTCAACGAGA	0.19
TCCCGATGAGTGGATGAGA	0.174
TCCCGGGGAGTTGCAGAGA	0.254
TCCCGGCGAGTCAGTGAGA	0.317
TCCCATTCAGTCGTTGAGA	0.4
TCCCTTACAGTCGTTGAGA	0.329
TCCCACTCAGTGAATGAGA	0.521
TCCCTTTTAGTCTCGGAGA	0.256
TCCCGGGGAGTAGTGGAGA	0.229
TCCCTTGGAGTTTTGGAGA	0.222
TCCCAAGTAGTAGGTGAGA	0.0868
TCCCTGCAAGTCTAAGAGA	0.161
TCCCAGTGAGTAGGGGAGA	0.202
TCCCCCGGAGTGTCAGAGA	0.171
TCCCGACCAGTTGACGAGA	0.109
TCCCAGTGAGTCCCTGAGA	0.154
TCCCTTCCAGTTTGGGAGA	0.207
TCCCGGGAAGTGGAAGAGA	0.246
TCCCCAGCAGTCGGTGAGA	0.211
TCCCATGCAGTTTGTGAGA	0
TCCCCATTAGTGGTAGAGA	0.0779
TCCCAGGTAGTGCTAGAGA	0.21
TCCCTCGAAGTGACGGAGA	0.417

Sequence	TetR repression strength
TCCCAGCGAGTTAGAGAGA	0.815
TCCCTGTGAGTCAAGGAGA	0.37
TCCCCGTCAGTGGTTGAGA	0.134
TCCCAGCCAGTAGGGGAGA	0.152
TCCCAGACAGTGATAGAGA	0.384
TCCCTTTAAGTCATGGAGA	0.0968
TCCCCTGGAGTGGTGGAGA	0.0678
TCCCTTGTAGTTAAAGAGA	0.218
TCCCGGTTAGTTTTGGAGA	0.543
TCCCGGTGAGTTTTGGAGA	0.296
TCCCATCCAGTGATAGAGA	0.626
TCCCTATAAGTCTGGGAGA	0.203
TCCCGGCAAGTTGTAGAGA	0.209
TCCCGGATAGTGCTGGAGA	0.447
TCCCAGGCAGTGGATGAGA	0.177
TCCCATTAAGTAGGCGAGA	0.297
TCCCTTTTAGTATGCGAGA	0.292
TCCCGGCGAGTGAAGGAGA	0.262
TCCCCAAGAGTCCGGGAGA	0.205
TCCCGTTGAGTGTTGGAGA	1.1
TCCCATGTAGTCGTCGAGA	0.183
TCCCATCCAGTTGTTGAGA	0.37
